Z-score data for 110 compounds are collected here from PubChem BioAssay AID488969 (Vanderbilt High Throughput Screening Facility, 2010).

Whole data set: some 110,000 compounds, median “z-score” near -0.1, cut for the highest 2% near 2. The list shows a part of the results. The source made the active and inactive calls.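 Rule for the calls: active = z-score in the third read window above 3 or below -3; inactive = the rest.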

The target of the test is Metabotropic glutamate receptor 8 (Rattus norvegicus) (UniProt P70579). Kind of test: rat mGluR8 modulators via GIRK flux, primary screen, cell-based, thallium flux, HTS (AID 488969). Conditions: HEK293 rat mGluR8, GIRK (G protein-gated inwardly rectifying potassium channel) thallium flux, FluoZin2; at 10 µM; stronger effect = higher value; submaximal glutamate (EC20) added with thallium.
Chain of UniProt P70579 (P70579 whole entry, looked up): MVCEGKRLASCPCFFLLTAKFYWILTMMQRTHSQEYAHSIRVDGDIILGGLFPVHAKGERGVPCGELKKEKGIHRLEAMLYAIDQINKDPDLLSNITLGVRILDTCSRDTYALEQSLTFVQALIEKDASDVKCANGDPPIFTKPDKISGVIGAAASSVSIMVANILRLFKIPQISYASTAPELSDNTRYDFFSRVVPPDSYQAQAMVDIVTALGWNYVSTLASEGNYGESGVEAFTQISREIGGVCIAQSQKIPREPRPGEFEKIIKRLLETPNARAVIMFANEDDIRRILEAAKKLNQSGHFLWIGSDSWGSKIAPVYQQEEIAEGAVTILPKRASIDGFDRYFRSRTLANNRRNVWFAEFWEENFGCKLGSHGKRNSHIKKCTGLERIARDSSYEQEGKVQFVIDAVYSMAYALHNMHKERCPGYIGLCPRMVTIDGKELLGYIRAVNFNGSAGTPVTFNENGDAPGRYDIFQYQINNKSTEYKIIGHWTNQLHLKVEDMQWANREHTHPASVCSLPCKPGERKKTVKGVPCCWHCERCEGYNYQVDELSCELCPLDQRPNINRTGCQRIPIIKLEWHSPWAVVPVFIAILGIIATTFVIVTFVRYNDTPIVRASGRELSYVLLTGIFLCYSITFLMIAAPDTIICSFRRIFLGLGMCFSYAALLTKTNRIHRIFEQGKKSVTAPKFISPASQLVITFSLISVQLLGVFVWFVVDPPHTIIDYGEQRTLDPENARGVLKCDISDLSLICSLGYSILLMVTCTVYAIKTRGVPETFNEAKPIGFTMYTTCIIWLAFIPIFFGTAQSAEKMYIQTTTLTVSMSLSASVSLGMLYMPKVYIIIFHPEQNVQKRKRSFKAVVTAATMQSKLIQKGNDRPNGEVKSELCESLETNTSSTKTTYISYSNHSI
For `CC(=O)N(C(C)=O)C1=C(C#N)C2(CCCCC2)Cc2ccccc21`, the z-score was -0.305.
Turning to `CC(CC(=O)Nc1nc2ccccc2[nH]1)c1ccccc1` (stereo not given), the z-score was -0.0862.
In the case of `CCCCC(=O)Nc1cc(NC(=O)CCCC)cc(C(=O)O)c1`, the z-score was -0.119.
`Cc1cc(C(=O)NCCCC(=O)O)c(C)o1`: the z-score is -0.154.
The compound `COc1ccc(C(C(=O)NC2CCCCC2)N(C(=O)CCl)c2ccc(Cl)cc2)cc1` (stereo not given) showed a z-score of 0.0468.
With `NCCCCCc1nnc(SCc2ccc(Cl)cc2Cl)o1`, the z-score was 2.74.
As for `Cc1ccc(NS(=O)(=O)c2ccccc2)c2c1CC(C)(C)O2`, the z-score was -0.955.
As to `Cc1cccc(C)c1N1CCN(S(=O)(=O)N2CCOCC2)CC1`, the z-score is -0.017.
As to `COc1cc(C(=O)N2CCN(S(=O)(=O)c3ccc(C)cc3)CC2)ccc1OCc1c(C)noc1C`, the z-score is -0.897.
For `N#CN=C1SCCS1`, the z-score is 0.264.
With `O=C(Nc1nncs1)c1cccc(S(=O)(=O)N2CCCC2)c1`, the z-score is -0.0624.
`O=C(CCCCCCCC(=O)NCC1CCCO1)NCC1CCCO1` (stereo not given) gave a z-score of 0.434.
`COc1ccc(CCN2CC(O)=C(c3nc(C)cs3)C2=N)cc1OC`: the z-score is -0.00316.
Turning to `Cc1nn(-c2cc(N3CCOCC3)ccc2N)c(=O)c2ccccc12`, the z-score was -0.0334.
Regarding `C=CCOc1ccc(CNc2nccs2)cc1OCC`, the z-score was -0.313.
As to `N#CC1=C(N)NC(SCc2ccc(Cl)cc2)=C(C#N)C12CCCCC2`, the z-score came to 0.116.
Turning to `CC(C)(C)c1cc(C(=O)Nc2ccccc2)ccn1`, the z-score was -2.42.
Take `Cc1nn2c(NCCCN3CCOCC3)c3c(nc2c1-c1ccccc1)CCC3`: the z-score is -0.0116.
Next, `CC(C)(C)NS(=O)(=O)c1ccc(CCC(=O)NCc2cccnc2)cc1`: -0.0966; `COCCn1c(=O)[nH]c2cc(C(=O)NCCN3CCN(c4ccc(OC)cc4)CC3)ccc2c1=O`: 0.553.
Take `CCC(C)(C)NC(=O)C(c1ccccc1F)N(Cc1ccco1)C(=O)Cn1nnc2ccccc21` (stereo not given): the z-score is -0.164.
`COc1ccccc1N(CC(=O)NC1CCCCC1)S(C)(=O)=O` displayed a z-score of 0.923.
For `O=[N+]([O-])c1ccc(-c2cn(-c3ccccc3)c(=S)[nH]2)cc1`, the z-score is -0.00967.
For the compound `Nc1c(C(=O)NCc2ccco2)sc2nc(N3CCOCC3)c3c(c12)CCCC3`, the z-score was -1.31.
Consider `Cc1cc(C)c(S(=O)(=O)Nc2ccc(O)cc2)c(C)c1`, for which the z-score was -0.0972.
Next, `COc1ccc(-c2nc(NC(=O)C3CC(=O)N(c4ccc5c(c4)OCCO5)C3)sc2C)cc1` (stereo not given): -0.283; `CCCN(CC1CC1)C(=O)COc1ccccc1C(=O)NCc1ccccc1`: -1.23; `CC(C)CC1C(C#N)=C(N)Oc2n[nH]c(-c3ccccc3)c21` (stereo not given): -1.54.
With `CCNc1nc(NC(C)C)nc(N(C#N)C(C)C(=O)N(C)C)n1` (stereo not given), the z-score was -0.195.
Next, `O=[N+]([O-])c1cc(/C=N/N2CCN(c3ccccc3)CC2)ccc1Cl`: 2.02; `CC(C)CNC(=O)NC(=O)CSc1nc2ccccc2n1CC(C)C`: -0.276.
Next, `C=CCN(CC=C)C(=S)NC(=O)c1ccc(-c2ccccc2)cc1`: active: 11.4; `COc1ccc(Cn2nnnc2CN2CCc3ccccc3C2)cc1`: -0.0372; `Cc1ccccc1OCC(=O)Nc1cccc(NC(=O)c2ccco2)c1`: -0.387.
`O=C(Nc1ccc([N+](=O)[O-])cn1)C1CCCCC1`: the z-score is -0.376.
`CCOc1ccc(S(=O)(=O)NCCSc2ccccc2)cc1` had a z-score of 0.0941.
Consider `COc1cccc(Nc2nc(-c3cccs3)nc3ccccc23)c1`, for which the z-score is -0.218.
Next, `Cc1oc2cc3c(C(=O)N4CCN(c5ccccc5)CC4)c(C)oc3cc2c1C(=O)N1CCN(c2ccccc2)CC1`: -0.413; `C=CCNC(=O)c1ccc(CNS(=O)(=O)c2ccc(NC(C)=O)cc2)cc1`: 0.123; `c1ccc(OCCOCCN2CCc3ccccc3C2)cc1`: -0.0733.
Next, `COc1cc(=O)[nH]c(=O)n1CC(=O)c1ccccc1`: 0.0941; `CCOC(=O)NCc1cc(-c2nn(C)c(=O)c3ccccc23)ccc1C`: -0.837; `COc1ccc(C(=O)NN(C)c2nc(-c3ccccc3)cc(C)c2S(C)(=O)=O)cc1`: 0.745.
As to `Cc1ccc(Cl)cc1N1CCN(Cc2cc3c(cc2O)CCC3)CC1`, the z-score is -0.148.
Next, `O=c1c(-c2ccccc2)coc2c(CN3CCCC3)c(O)ccc12`: -1.07.
With `COC(=O)NCC(c1cccnc1)N1CCN(c2ccccc2OC)CC1` (stereo not given), the z-score is -0.0564.
As to `Cc1cc(NC(=O)c2ccc3c(c2)C(=O)N(Cc2cccnc2)C3=O)no1`, the z-score was -0.479.
For the compound `COc1ccc(Cl)cc1S(=O)(=O)N1CCN(Cc2ccc3c(c2)OCO3)CC1`, the z-score is -0.056.
With `COc1cccc(NC(=O)Cn2cnc3sc(C)c(S(=O)(=O)N4CCCCC4)c3c2=O)c1`, the z-score was -0.22.
Regarding `Cc1cccc(-n2ncc3c(N4CCc5ccccc54)ncnc32)c1`, the z-score was -0.17.
`CCCCCC(=O)Nc1nc2ccccc2[nH]1` yielded a z-score of 0.0142.
Next, `COC(=O)CC1C(=O)NCCN1C(=S)Nc1ccccc1` (stereo not given): -0.493; `CCn1c2c(c3ccc(OC)cc31)CCCC2=O`: -0.183; `CCOc1ccc(-n2ccnc2SCC(=O)NCc2ccc3c(c2)OCO3)cc1`: 0.0523.
Turning to `N#Cc1nc(-c2ccc(OCc3ccccc3)cc2)oc1NCc1cccnc1`, the z-score was -0.671.
On to `COc1ccc2c(c1)OC13CCCCC1C2C(C(=O)c1ccccc1)C(=O)N3` (stereo not given), for which the z-score was -0.256.
For `CCC(=O)N/N=C(\C)CC(=O)Nc1ccc2ccccc2c1`, the z-score is -0.143.
As to `CCC1(C)OC(=O)N2CCc3c(C)[nH]c4c(C)ccc(c34)C21C` (stereo not given), the z-score was -0.262.
Take `CCOC(=O)c1cnn2c(C)cc(-c3ccccc3)nc12`: the z-score came out at 2.74.
With `COC(=O)CC1SC(=O)NC1=O` (stereo not given), the z-score turned out to be 0.352.
In turn, `NS(=O)(=O)c1ccc(-n2nncc2C23CC4CC(CC(C4)C2)C3)cc1` returned a z-score of 0.359.
Next, `COc1cc(NC(=O)c2cccs2)c(OC)cc1NC(=O)CCn1nnc2ccccc21`: 0.118.
As to `CCOC(=O)c1c(NC(=O)C2CCCO2)sc(C(=O)OC(C)(C)C)c1C` (stereo not given), the z-score is -0.101.
Take `COC(=O)c1ccc(NC(=O)C(=O)N2CCN(C(=S)NCCc3ccccc3)CC2)cc1`: the z-score was -0.154.
In the case of `COc1ccc(-c2noc(-c3ccccc3Cl)n2)cc1OC`, the z-score is -0.738.
Next, `CCN(CC)CCOC(=O)C1(c2ccc(OC)c(OC)c2)CCCC1`: 0.0243; `O=C(Cn1nnc(-c2ccccc2)n1)N/N=C/c1cc([N+](=O)[O-])ccc1O`: -0.78; `Cc1ccc(C(=O)Nc2ccc(C)c(S(=O)(=O)Nc3ccccc3Cl)c2)s1`: -1.64.
On to `O=C(Nc1nc2ccccc2s1)c1cc2c(s1)-c1ccccc1OC2`, for which the z-score is -0.161.
For `Cc1ccccc1C(=O)Nc1cccc(C#N)c1`, the z-score was -0.261.
Regarding `CC(CN1CCCC(C(N)=O)C1)c1ccccc1` (stereo not given), the z-score is -0.143.
Consider `Cc1ccc(S(=O)(=O)N2CCN(S(=O)(=O)c3ccc4c(c3)OCCO4)CC2)cc1`, for which the z-score is -0.228.
On to `C/C(=C\C(=O)c1ccc(C)cc1)NCc1ccc(F)cc1`, for which the z-score was -0.367.
Consider `CCN(CC(N)=O)S(=O)(=O)c1ccc(Br)cc1`, for which the z-score is -0.102.
Next, `O=C(c1ccco1)N1CCN(Cc2cccnc2)CC1`: -0.196; `NC(=O)COc1ccc(C2c3c(oc4ccccc4c3=O)C(=O)N2CC2CCCO2)cc1` (stereo not given): -0.0945.
Regarding `CCn1c(CSc2ncccn2)nnc1SCC(=O)N1c2ccccc2CC1C` (stereo not given), the z-score is -0.185.
For `CC(=O)Nc1cccc(C(=O)N/N=C/c2ccc(F)cc2)c1`, the z-score was -0.381.
In the case of `CCS(=O)(=O)n1nc(-c2ccccc2)nc1N`, the z-score was found to be 0.709.
Next, `O=C(OCC(=O)N1CCc2ccccc21)C1=COCCO1`: 0.992; `O=C(CSc1nnnn1-c1ccc2c(c1)OCO2)NCc1cccs1`: 0.848.
`CCc1nnc(NC(=O)CSc2nnc(-c3cccnc3)n2CCc2ccccc2)s1` returned a z-score of 0.167.
For `CC(C)CNC(=S)NNC(=O)c1csc2ccccc12`, the z-score is -0.117.
Next, `CCC(=O)c1ccc(OCC(O)Cn2cnc3ccccc32)cc1` (stereo not given): -0.947; `COC(=O)c1ccc(C(=O)OC)c(-n2c(=O)c3ccccc3c3ccccc3c2=O)c1`: 0.0668.
Next, `CC(C)=C(NC(=O)c1ccco1)C(=O)NCCc1nc2ccccc2[nH]1`: -0.508; `Cc1cccc2cc(CN(Cc3ccc4c(c3)OCO4)Cc3nnnn3C3CCCC3)c(=O)[nH]c12`: 0.216; `O=c1oc2ccccc2c(Nc2cccc(O)c2)c1[N+](=O)[O-]`: -0.379.
Next, `O=C(O)c1ccccc1C(=O)c1cccs1`: 0.162.
With `O=c1cc(O)n(-c2ccc(F)cc2)c(=S)[nH]1`, the z-score was 0.024.
Next, `S=C(Nc1ccc(Cl)cc1)NC1CCN(Cc2ccccc2)CC1`: 0.375; `Cc1ccc(N2C(=O)SC(N(CC(=O)O)c3cccc(C)c3)C2=O)cc1` (stereo not given): 0.138; `CC1(C)CC(=O)C2=C(C1)N(Cc1cccnc1)C(=O)C2(NC(=O)c1cccnc1)C(F)(F)F` (stereo not given): -0.224.
Consider `COc1ccccc1OCC(O)Cn1c(=N)n(Cc2ccccc2)c2ccccc21` (stereo not given), for which the z-score was 0.691.
Next, `COC(=O)C1=C(CSc2nc3c(cc2C#N)CN(C)CC3)OC(N)=C(C#N)C1c1ccc(F)cc1` (stereo not given): -0.097.
`CC(C)CNC(=O)CN(C1CCCCC1)S(=O)(=O)c1ccccc1` had a z-score of 0.11.
Next, `Cc1ccc(S(=O)(=O)NNc2ccccc2)c(C)c1`: -0.0253; `COc1ccc(NC(=O)Nc2ccc(Cc3ccncc3)cc2)cc1OC`: -0.78; `Cc1ccc2nc(C3CCCN(C(=S)Nc4ccccc4C)C3)[nH]c2c1` (stereo not given): -0.31.
As for `CC(C)OC(=O)c1c(-c2ccc(C(C)C)cc2)csc1NC(=O)C1CCCO1` (stereo not given), the z-score is -0.358.
Consider `COc1ccc(-c2cc(C(=O)N3CC4(C)CC3CC(C)(C)C4)no2)cc1` (stereo not given), for which the z-score was -0.295.
For the compound `COc1ccc(-n2nnc3c(=O)n(CC(=O)N4CCC(C)CC4)cnc32)cc1`, the z-score was -0.0704.
In turn, `CCOC(=O)N1CCN(C(=O)C2CCN(S(=O)(=O)c3ccc(Br)s3)CC2)CC1` had a z-score of 0.21.
Take `COc1cccc(OC)c1C(=O)Nc1ccc([N+](=O)[O-])cn1`: the z-score is -0.301.
On to `Cc1nc([N+](=O)[O-])cn1CC(=O)NCCCO`, for which the z-score was -0.109.
For the compound `CC(=O)c1ccc(NC(=O)CCn2c(=O)oc3ccccc32)cc1`, the z-score was -0.318.
Take `CCc1cc2c(=O)c(-c3cnn(-c4ccccc4)c3)c(C(F)(F)F)oc2c(CN(C)C)c1O`: the z-score is -0.335.
`Cc1ccc2nc(NC(=O)c3ccc4ncsc4c3)sc2c1` had a z-score of 0.195.
In turn, `O=[N+]([O-])c1ccc(/C=N/n2c(C3CCCCC3)n[nH]c2=S)cc1` yielded a z-score of 0.116.
Consider `O=C(N/N=C/c1ccc2cccc(OCc3ccccc3)c2n1)c1ccc(Cl)cc1`, for which the z-score was determined as 0.327.
